The results in this text go back to PubChem BioAssay AID1159614 (National Center for Advancing Translational Sciences (NCATS), 2016).

Among all 45,000 compounds or so, about 65 (0.1%) were called active. Calls come from the whole dose curve; as a rule, active = well fitted activation curve with a large enough effect; inconclusive = small, poorly fitted or top-dose-only effect; inactive = no such curve, though single readings can be large or run the other way. The list shows a part of the results.

In the assay the target is Galactocerebrosidase (Homo sapiens) (UniProt P54803). The assay is described as follows: A Novel Cell-Based Assay to Identify Small Molecules for B -Galactocerebrosidase. Note: 0% is about no effect; nearly all actives have a fitted effect of over 65% in size. The note with it: 145M-Twi-hGALC-G270D cells (Twitcher mouse brain line with human GALC G270D), HMU-beta-Gal fluorescence, 48 h; series mostly up to 57.5 µM; activation: at the top concentration. The method, boiled down: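 Brain-derived Twitcher mouse 145M-Twi cells stably expressing human GALC-G270D or wild-type GALC, treated live, then residual GALC activity read by fluorescence of HMU-b-Gal substrate (0.1 mM final) in citrate-phosphate buffer pH 5.2 with sodium taurocholate. Signal increase indicates enhancement.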
UniProt P54803, sequence (P54803 whole entry, looked up): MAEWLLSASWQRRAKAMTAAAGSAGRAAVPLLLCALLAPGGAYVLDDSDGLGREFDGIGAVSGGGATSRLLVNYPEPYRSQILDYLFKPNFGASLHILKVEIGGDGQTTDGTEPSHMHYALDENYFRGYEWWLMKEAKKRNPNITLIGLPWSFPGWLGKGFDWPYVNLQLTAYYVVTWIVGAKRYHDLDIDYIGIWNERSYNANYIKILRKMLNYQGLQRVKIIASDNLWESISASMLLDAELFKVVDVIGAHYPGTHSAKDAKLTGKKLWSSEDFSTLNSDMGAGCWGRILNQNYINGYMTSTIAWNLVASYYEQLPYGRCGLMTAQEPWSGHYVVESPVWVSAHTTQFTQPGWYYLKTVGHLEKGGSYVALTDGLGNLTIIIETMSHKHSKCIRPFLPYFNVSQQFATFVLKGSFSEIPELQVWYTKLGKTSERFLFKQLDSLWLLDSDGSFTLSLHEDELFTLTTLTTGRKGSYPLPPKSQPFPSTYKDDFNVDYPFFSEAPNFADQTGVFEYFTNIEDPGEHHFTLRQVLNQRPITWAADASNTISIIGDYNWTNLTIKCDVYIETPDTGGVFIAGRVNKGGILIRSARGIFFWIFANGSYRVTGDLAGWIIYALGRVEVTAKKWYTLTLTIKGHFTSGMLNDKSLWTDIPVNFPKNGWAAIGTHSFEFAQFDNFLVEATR
Turning to `Cc1nc(-c2ccc(S(=O)(=O)N3CCN(c4cc(Cl)ccc4C)CC3)cc2)co1`, the “activation” value was inactive: -18.9%.

As for `O=C(c1ccc(F)cc1)n1nc(-c2cccnc2)nc1NCc1ccc(F)cc1`, the “activation” value is inactive: -8.18%.

On to `Cc1cn2c(=O)c(S(=O)(=O)N3CCN(c4cc(Cl)ccc4C)CC3)c(C)nc2s1`, for which the “activation” value is inactive: -5.55%.

As to `COc1ccccc1NC(=O)CSc1oc(-c2ccccc2)nc1S(=O)(=O)c1ccc(C)cc1`, the “activation” value was inactive: -2.42%.

As for `CCOC(=O)c1noc2ncn(CC(=O)Nc3cccc(Cl)c3)c(=O)c12`, the “activation” value is inactive: -13.1%.

Turning to `O=C(CSc1c2c(nc3cc(Cl)ccc13)CCCC2)N1CCN(c2ccccc2F)CC1`, the “activation” value is inactive: -9.52%.

For `O=C(COc1ccc2ccccc2c1)NC1CC(=O)N(c2ccccc2)C1` (stereo not drawn), the “activation” value is inactive: 8.67%.

As for `Cc1ccc2nc(-c3cccnc3)c(Nc3ccc(C(C)C)cc3)n2c1`, the “activation” value was inactive: -26.3%.

With `N#Cc1ccccc1NC(=O)C(=O)NCCc1csc(-c2ccc(F)cc2)n1`, the “activation” value is inactive: -20.1%.

On to `Cc1ccc(S(=O)(=O)c2nc(-c3cccs3)oc2SC(C)C)cc1`, for which the “activation” value was inactive: -12.3%.

Regarding `COc1ccc2c(Sc3ccc(Cl)cc3)c(C(=O)N3CCC(C)CC3)[nH]c2c1`, the “activation” value is inactive: -47.1%.

Consider `O=C(Cn1c(=O)oc2cc(S(=O)(=O)N3CCCC3)ccc21)Nc1ccc(F)cc1F`, for which the “activation” value is inactive: -14.6%.

As to `CCNC(=O)CC1C(=O)N(c2ccc(C)cc2)C(=O)N1CCC(C)C` (stereo not drawn), the “activation” value is inactive: -20%.

As for `O=C(Nc1cccc(-c2nc3cccnc3s2)c1)c1cccc(Br)c1`, the “activation” value was inactive: -16.8%.

As for `CCOC(=O)c1ccc(NC(=O)c2cn(-c3ccccc3)nc2-c2ccc(OC)c(OC)c2)cc1`, the “activation” value is inactive: -3.96%.

As to `CCOC(=O)c1nc(Nc2ccc(C(=O)OC)cc2)c2ccccc2n1`, the “activation” value is inactive: 3.04%.

Consider `CCOC(=O)c1c(C)oc2nc(C)nc(NCc3cccc(Cl)c3)c12`, for which the “activation” value was inactive: -17%.

As for `CCCCOc1cccc(NC(=O)c2cccc(C(=O)Nc3cccc(OCCCC)c3)c2)c1`, the “activation” value was inactive: -16.4%.

As to `O=C(c1cccc(Cl)c1)n1nc(-c2cccnc2)nc1NCc1ccccc1`, the “activation” value was inactive: -29.4%.

Regarding `Cc1ccc(C(=O)Nc2nc(-c3nnn(-c4cccc(C(F)(F)F)c4)c3C)ns2)cc1`, the “activation” value was inactive: -19.6%.

Regarding `COc1cc(OC)cc(C(=O)Nc2nnc3n2CCS3)c1`, the “activation” value was inactive: -9.24%.

Regarding `COc1cccc(C(=O)NCC(=O)OCc2cc(=O)n3ccsc3n2)c1`, the “activation” value is inactive: 4.25%.

Turning to `CSCCC(NS(=O)(=O)c1ccc2c(c1)oc(=O)n2C)C(=O)N1CCN(c2ccc(C(C)=O)cc2)CC1` (stereo not drawn), the “activation” value was inactive: -2.5%.

In the case of `CCc1ccc(-n2c(=O)c3cccnc3n2CC(=O)Nc2cc(OC)ccc2OC)cc1`, the “activation” value is inactive: -20.2%.

Take `CCc1ccccc1NC(=O)c1ccc(=O)n(Cc2ccc(F)cc2)c1`: the “activation” value was inactive: -9.02%.

As to `COc1cc(OC)cc(-c2nc3nc(C)c(CCC(=O)NCCC(C)C)c(C)n3n2)c1`, the “activation” value is inactive: 10.4%.

As to `CCOC(=O)c1c(S(=O)(=O)NCC(=O)Nc2ccc(F)cc2C)c(C)n(C)c1C`, the “activation” value was inactive: -7.9%.

Consider `COc1ccccc1NC(=O)CN1C(=O)CSc2ccc(S(=O)(=O)N3CCCC3)cc21`, for which the “activation” value was inactive: -22.1%.

On to `O=c1c(S(=O)(=O)c2cccc(Cl)c2)cn(Cc2ccccc2)c2cc(N3CCCCC3)c(F)cc12`, for which the “activation” value is inactive: -13.6%.

On to `CCN(CC)S(=O)(=O)c1ccc2[nH]cc(C(=O)NCCc3ccccc3)c(=O)c2c1`, for which the “activation” value is inactive: -6.49%.

`CC(C)CC(=O)Nc1nnc(SCc2cc(=O)n3ccccc3n2)s1`: the “activation” value is inactive: -4.87%.

As to `Cc1cc(C)c(NC(=O)CCCn2c(C)c3cnn(-c4ccccc4)c(=O)c3c2C)c(C)c1`, the “activation” value was inactive: -11.1%.

Turning to `Cc1ccc(CCNC(=O)c2cn(C)c3ccc(S(=O)(=O)N4CCC(C)CC4)cc3c2=O)cc1`, the “activation” value is inactive: -11.5%.

For the compound `COc1cccc(-n2cc(C(=O)OCc3ccc(Cl)cc3)c3ccccc3c2=O)c1`, the “activation” value was inactive: -4.96%.

`O=C(NCc1ccccc1Cl)c1ccc(Cn2c(=O)c3cccn3c3cccnc32)cc1`: the “activation” value was inactive: 6.86%.

Turning to `CCOc1ccc(-n2c(=O)c3c(C)c(C)sc3n(CC(=O)N3CCC(C)CC3)c2=O)cc1`, the “activation” value was inactive: -6.26%.

Regarding `Cc1cccc(CNC(=O)c2ccc(C)c(-n3c(C)nc4cccnc43)c2)c1`, the “activation” value was inactive: -3.7%.

As to `CC(=O)C1=C(c2ccc(Br)cc2)N(C(C)=O)n2c(nnc2C2CCCCC2)S1`, the “activation” value is inactive: -13.1%.

For the compound `CCn1ccc2cc(S(=O)(=O)N3CCC(C(=O)NCCc4ccccc4)CC3)ccc21`, the “activation” value is inactive: -7.29%.

As for `COc1cc(OC)c(NC(=O)c2c(C)oc3nc(C)nc(N4CCOCC4)c23)cc1Cl`, the “activation” value was inactive: -10.6%.

For the compound `CC(=O)Nc1ccccc1-c1nc2ccccc2n(CC(=O)c2ccc(Br)cc2)c1=O`, the “activation” value was inactive: -19.7%.

As for `CCOC(=O)c1cccc(NC(=O)c2cc(S(=O)(=O)N3CCCC(C)C3)cn2C)c1` (stereo not drawn), the “activation” value is inactive: -5.92%.

Turning to `CC1=C(C(N)=O)C(c2ccc(C)cc2)n2nc(SCc3ccccc3F)nc2N1` (stereo not drawn), the “activation” value is inactive: -7.35%.

As for `COC(=O)CNC(c1ccccc1)c1cc(Br)ccc1NC(=O)c1ccccc1` (stereo not drawn), the “activation” value is inactive: -5.16%.

On to `COc1cccc(-n2cc(C(=O)Nc3cc(OC)c(OC)c(OC)c3)c3ccccc3c2=O)c1`, for which the “activation” value was inactive: -10.7%.

For `CCOC(=O)C1CCCN(C(=O)Cn2ncc3c(C)n(Cc4ccccc4F)c(C)c3c2=O)C1` (stereo not drawn), the “activation” value was inactive: -9.96%.

On to `COc1cccc(CNC(=O)CSc2nnc(C)c3c(C)n(-c4ccccc4)nc23)c1OC`, for which the “activation” value was inactive: -18.9%.

On to `Cc1onc(-c2c(F)cccc2Cl)c1C(=O)Nc1ccc(OC(C)C)cc1`, for which the “activation” value was inactive: -9.06%.
